The list shows a part of the results.
B1: chr4:94236435:94236436:-_ENSMUSG00000028577_ENSMUST00000107107|mus_hu|FALSE|FALSE (ssRNA)
RNA: GGGAGUUCUACAGUCCGACGAUCCUGGGACAUCAUGAGUUUUUGUCCUGCCUGGCCAACAAAACAAUUGCAAAAAGUCCUGAGAGCAAGCAGCUGGUUUGCUGGCUUUCCUUUAGGGUUCAGAAGAUUGAUAAGAUGACUGCUCAACAGAGGAUUGAGCAUCA
B2: 80332580_80332700_4901_3pUTR_ENSG00000156052_ENST00000286548|human|control|control (ssRNA)
RNA: GGGAGUUCUACAGUCCGACGAUCGUACAAAAAAGUAAAUUGCCCUUUAGCUGAAUUACCUUUUUAAAAUAGGCCUGCUAGUUAAUCUACCAAAAAAAAAAAAAUACAAGUUUUACGUGUUCUUCAGAUUCCUUUUGUAGUUGUCAACAGAGGAUUGAGCAUCA
B3: chr4:144460044:144460045:+_ENSG00000153147_ENST00000283131|hu_mus|hu_hu_hu_mus_False|8_18 (ssRNA)
RNA: GGGAGUUCUACAGUCCGACGAUCACGGUCCAUAGCCUGAAGAUCAACUUGCGGAUUCCAAUCUGAGUCAUAUAAAAUGACUACAUCAGCAGUUGCAAGAUUGAUGCCCAGACCACCAGCACGCGUGCUUAACAUGAAUACAAACAACAGAGGAUUGAGCAUCA
B4: 129792989_129793109_2214_3pUTR_ENSG00000077684_ENST00000452328|human|control|control (ssRNA)
RNA: GGGAGUUCUACAGUCCGACGAUCGUGUUGUAGGCACUUUGACUGCAGUCUGAUUAUAGUUUACUUUGAUUAGGGAGCCAUUGCACUUGGGCACUAUCUCCUUCCUUGUGCCAGGUGCUGACUGCCCCACUCCAGGGGAGGUGGCAACAGAGGAUUGAGCAUCA
B5: chr12:96663167:96663168:+_ENSG00000111145_ENST00000228741|hu_hu|motif|central (ssRNA)
RNA: GGGAGUUCUACAGUCCGACGAUCAUGGAUCUAGAGCAUACAUUAAUCCCAGUUUCCAAAGGAAAAGAAAGAAUCAGAUCGGUAGUCAUUUAAAUAUUUCCAAUCAGCAUUUACGUAAACAAGUAUACUAAAAAUAGUAGUUUUCAACAGAGGAUUGAGCAUCA
B6: 85455326_85465482_71_3pUTR_ENSMUSG00000042523_ENSMUST00000123491|mouse|control|control (ssRNA)
RNA: GGGAGUUCUACAGUCCGACGAUCUCUGGGCAUACAGCUUGAUUUCUUUGGCAUCAGAUGGCUUCUGACCAGUCUUUUCUUCCCAUCUGGACAGGGCUUCUUUGAUCGUUGUUGCUUUUGCCAUUCCGGCGGUUGCUACCGUCACAACAGAGGAUUGAGCAUCA
B7: 148668463_148675568_217_3pUTR_ENSMUSG00000025511_ENSMUST00000117634|mouse|control|control (ssRNA)
RNA: GGGAGUUCUACAGUCCGACGAUCCGGUGACGAUGAGCAGGUUGGCAGCCGACAAGGAUGGAAAUGAGGAUGAUAAGGUGGCAAAGUUUCCCUGUGUGGCAGCCAACCAGAUGCCAACACCCAGGACACCACAGCCACCCAGCCCAACAGAGGAUUGAGCAUCA
B8: chr1:39494447:39494448:+_ENSG00000168653_ENST00000372967|hu_mus|hu_hu_hu_mus_False|28_68 (ssRNA)
RNA: GGGAGUUCUACAGUCCGACGAUCGCACCGAGCGGCGUUCUUAUAGGGCUGUUCUGCGCUUAGGAACGUCAACCAUCGGUCCAGGCUGAUGCCCAGCUUUUUCUGUAUGUCCAAGAAAGGCAUGGCUCUGCAGUGCCCUUGUCACAACAGAGGAUUGAGCAUCA
B9: chr4:24557968:24557969:-_ENSG00000109606_ENST00000336812|hu_hu|FALSE|FALSE (ssRNA)
RNA: GGGAGUUCUACAGUCCGACGAUCACCCAUUAGAAUAUCUGUAGCCAGUGUCCUCUCAUGAGCCUCAUCAAGAAUUAUUACACCAUAACGCUCCAGGAGGGGAUCAUUCAUAGCUUCACGAAGUAACAUCCCAUCAGUCAUAUACAACAGAGGAUUGAGCAUCA
B10: 49403031_49403976_2306_CDS_ENSMUSG00000069495_ENSMUST00000092123|mouse|control|control (ssRNA)
RNA: GGGAGUUCUACAGUCCGACGAUCGGUGGAAUAUAAUGUUUUAGAGGGUCCUGAAGGCUGGACAACACCAUUCAUAUUGUUGUGGCCAGUGUUCUGUUCCUUGGAUCCCUCACUGCGACUUGGAACAGGAGCACUGACCACUGCCAACAGAGGAUUGAGCAUCA
B11: chr4:95690885:95690886:+_ENSMUSG00000028572_ENSMUST00000156910|mus_mus|mus_mus_mus_hu_False|38_68 (ssRNA)
RNA: GGGAGUUCUACAGUCCGACGAUCUUUAGAAAAUGUUAAAUACCAUGCUAAAAUAUUUUCAAAGGCUAGUCUUAUUUUACCAGAAGUCACAGGCAAGCAGACACCAUAAGAAUAUAUGAAAAUGAAACUCAACAAUAUAACUGUCAACAGAGGAUUGAGCAUCA
B12: 8170459_8170715_3274_CDS_ENSG00000178921_ENST00000314666|human|control|control (ssRNA)
RNA: GGGAGUUCUACAGUCCGACGAUCGAUGGCGACUCGGGGGCUGGGACCACCAGGCUCACGGGGCACGGAGGCUUUGGGAAAGGUGGGGGGCAGGCAAUAGCUGGGCCCCAUCCGCUCCCUCAGGCCCCGUUCCUCCUCUGCCACCAACAGAGGAUUGAGCAUCA
B13: chr5:24101842:24101843:-_ENSMUSG00000028949_ENSMUST00000030791|mus_mus|motif|central (ssRNA)
RNA: GGGAGUUCUACAGUCCGACGAUCCUCCUGGAUGUCCACCCGCUUCCGCAUGAUGGUUUGAUCCAGUUUCCUCUCAAAUGCGGGGAGGUCCAUGUAAGCCUGGGACUCGGGUACCAGCUCCCGAAUCCUUUGAGGGAGGAUUUUCAACAGAGGAUUGAGCAUCA
B14: chr11:77376804:77376805:-_ENSG00000048649_ENST00000308488|hu_mus|FALSE|FALSE (ssRNA)
RNA: GGGAGUUCUACAGUCCGACGAUCUGGAUUUUAAUAGAAGUAUAUAAUGGCCAAAGGCCAAAACUACAUUCAAACCCUGCUAAUAUAUCCAGGCCGAUAGAAAAUUCACACACACACACACACACACACACACACACACACACACAACAGAGGAUUGAGCAUCA
B15: 104374691_104376647_723_CDS_ENSG00000139372_ENST00000392872|human|control|control (ssRNA)
RNA: GGGAGUUCUACAGUCCGACGAUCCCCUGGUAGAGUGUGAUCAUCCAUAUGGUUCAGCUGGACCUCACUGAGCCCUGACAUAAACAAACACUUCCAAAAAUGGUUUCCAGGUCCAGGGUAAUGAUGCCCUUUGUAAGCAGCCAUCAACAGAGGAUUGAGCAUCA
B16: chrX:71549762:71549763:+_ENSMUSG00000019087_ENSMUST00000019231|mus_mus|mus_mus_mus_hu_False|1_108 (ssRNA)
RNA: GGGAGUUCUACAGUCCGACGAUCAAAGUGUACCACUUCUUAUUGUUAGCACAACAUCACCAGAAAACGAUAACGACAGCCAAGCAGGACAGACAGUUAAGUAGUACUUCCACACUCCCAAACUCAGGGAGCCCUAUAGUUCAUCAACAGAGGAUUGAGCAUCA
B17: chr13:48664549:48664550:-_ENSG00000136146_ENST00000378586|hu_hu|motif|central (ssRNA)
RNA: GGGAGUUCUACAGUCCGACGAUCUGGUUUUCCUCUCCAGCCUGUAACAACUUUUGGUUUCUUGAAAUUGCCAGCAUUUCGGUAAGUUCCCACUCGAAGACGCAGCCAUUUUCCCCAGAGUCCCGCCACCGGCGCACGCGCAGACAACAGAGGAUUGAGCAUCA
B18: 56809451_56811643_435_CDS_ENSMUSG00000028431_ENSMUST00000030140|mouse|control|control (ssRNA)
RNA: GGGAGUUCUACAGUCCGACGAUCUUCCAGCUGCUGUGUGCUGAGAUUGCAGACUAUGACGUCCCCAGAGGCGGUGGCCACACACACAGAUUCCUGAUCCAGCAAGUCCUGAAUACCCACAAUGCAGCCACUUCCAUCCUCUGGCAACAGAGGAUUGAGCAUCA
B19: chr14:54894545:54894546:-_ENSG00000100528_ENST00000216416|hu_mus|FALSE|FALSE (ssRNA)
RNA: GGGAGUUCUACAGUCCGACGAUCCUUCAUUGGUGGCGUUUUGCAUGCACUUAACUGGACCGAUUCUUCUGUGUUGUUCUAAGAGCUCACCAGAACAUAGAUCAUGCCGUAUAGGUAGUAAAAAAACGCUAGAAGGUAAAAAGCCAACAGAGGAUUGAGCAUCA
B20: chr4:40210074:40210075:-_ENSMUSG00000036822_ENSMUST00000042575|mus_hu|FALSE|FALSE (ssRNA)
RNA: GGGAGUUCUACAGUCCGACGAUCUAUAGGACACUUAGAAUCAGGAGAUGCAUCAGCUGGUACUGUCUGUUGCAAUUUGCUAGUGCCAGCUUUAGGUGAAAAGUUGUCCAUUUUAAAUUCCUUAGCAGCUGAUGCCAUUAUCAUCAACAGAGGAUUGAGCAUCA
B21: 107987409_107987529_3908_3pUTR_ENSMUSG00000029461_ENSMUST00000049053|mouse|control|control (ssRNA)
RNA: GGGAGUUCUACAGUCCGACGAUCGGGAGGGGAAAAGGUGUGGACAAGGUGUCUGUGUAUGGUGAUGCCAGUGUGGCAGCUCAUGGUCAUGUGCACACCCCUCAUCCUAUGGUGAGGGGACCCUUCCAGCUCUGGCCUCCUCUGCAACAGAGGAUUGAGCAUCA
B22: 44657012_44657132_1561_3pUTR_ENSMUSG00000002028_ENSMUST00000002095|mouse|control|control (ssRNA)
RNA: GGGAGUUCUACAGUCCGACGAUCUUGCUCUAGAUCCAAAGCUUCUCUCAGACAUCGAAUACCGUCUGCUUCUCCUAUCAUUACUCUCAUUUUCUGGGGACUGGGAAAUAGGCAGUGGAGUAUGAACUUCGGGGGUAUUACUGCCAACAGAGGAUUGAGCAUCA

target: T1, UNK ZnF1-3 (human, UniProt Q9C0B0 31-174); test: nsRBNS (natural sequence RNA bind-n-seq); RBNS binding buffer (assumed for nsRBNS): 25 mM Tris pH 7.5, 150 mM KCl, 3 mM MgCl2, 0.01% Triton X-100, 500 ug/ml BSA, 20 U/ml SUPERase-In, 4 C; UNK is unkempt and MSI1 is Musashi-1; names of the RNAs are library labels; protein concentration not given here; high values mean tight binding
T1 sequence: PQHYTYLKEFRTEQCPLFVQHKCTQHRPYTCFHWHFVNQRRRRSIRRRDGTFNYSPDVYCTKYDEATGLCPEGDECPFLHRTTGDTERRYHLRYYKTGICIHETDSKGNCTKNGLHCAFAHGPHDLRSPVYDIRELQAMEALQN

Binder	binding signal [enrichment R]
B1	1.79
B2	1.62
B3	1.05
B4	0.514
B5	0.912
B6	0.373
B7	1.58
B8	0.521
B9	1.07
B10	0.658
B11	1.45
B12	0.502
B13	0.582
B14	2.31
B15	0.869
B16	1.43
B17	1.32
B18	0.813
B19	1.42
B20	0.556
B21	0.862
B22	1.02
